# In the supplement of paper PMC3334620:
# In all, about 33,000 sequences were measured (“E-score (-0.5 to 0.5)”: median about -0.032, highest 2% from about 0.36 on). The list shows a part of the results.
# Target: T1, Sko1 (UniProt Q02100)
# T1 sequence: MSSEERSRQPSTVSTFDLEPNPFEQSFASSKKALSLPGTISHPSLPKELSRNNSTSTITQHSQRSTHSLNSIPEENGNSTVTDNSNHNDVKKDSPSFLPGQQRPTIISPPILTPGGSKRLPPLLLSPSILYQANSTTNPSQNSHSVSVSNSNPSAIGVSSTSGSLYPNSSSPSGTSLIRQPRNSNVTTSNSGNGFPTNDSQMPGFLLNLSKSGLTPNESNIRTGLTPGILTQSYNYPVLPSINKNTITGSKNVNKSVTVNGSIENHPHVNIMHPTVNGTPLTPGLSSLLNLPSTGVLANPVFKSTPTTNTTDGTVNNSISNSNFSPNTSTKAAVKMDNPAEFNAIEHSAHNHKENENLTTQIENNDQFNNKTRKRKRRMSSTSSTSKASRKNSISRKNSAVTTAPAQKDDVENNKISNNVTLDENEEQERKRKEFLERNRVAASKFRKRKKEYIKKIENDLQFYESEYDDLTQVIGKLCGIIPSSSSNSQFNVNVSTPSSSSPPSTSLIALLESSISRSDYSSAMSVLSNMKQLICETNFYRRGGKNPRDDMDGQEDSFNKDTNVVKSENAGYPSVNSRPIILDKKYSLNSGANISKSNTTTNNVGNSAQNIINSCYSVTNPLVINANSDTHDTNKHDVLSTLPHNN
# Experiment: PBM E-score (8-mer binding enrichment) (E-score (-0.5 to 0.5)); higher = stronger / more preferred TF binding; most listed sequences are background and not binding sites
# Settings: protein concentration: 200 nM; construct: GST-full length
# Experimental: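 Universal 'all 10-mer' protein binding microarrays (Agilent AMADID 015681) probed with GST-tagged S. cerevisiae TFs (full-length or DBD) made by in vitro transcription/translation (PURExpress), about 100-200 nM. Bound TF was detected with fluorescent anti-GST. Each ungapped 8-mer (which stands for itself and its reverse complement) is scored by the PBM enrichment score (E-score), a modified Wilcoxon-Mann-Whitney statistic from -0.5 to +0.5, computed with the Universal PBM Analysis Suite. Scale: above 0.35 generally sequence-specific binding.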
row,Sequence,PBM E-score
1,GCGAGGTA,-0.163
2,CGATCTGC,-0.138
3,CGTTGAAG,0.0614
4,ACAGGGGA,-0.235
5,AGTCAGCA,0.175
6,CCTTGTCC,-0.314
7,TACGTGGA,0.424
8,CTCTGCTC,-0.3
9,AGCTTAAT,0.0147
10,CCTCTAGA,-0.162
11,ATACTTGC,0.149
12,GCGAGTAC,-0.0244
13,CCGCAAAA,0.0518
14,ATTAGACC,-0.165
15,AGGACCCC,-0.236
16,CGGGCCCA,-0.0705
17,CCGATTCA,-0.0674
18,GTGGGAAA,-0.00764
19,CAACGACC,-0.00955
20,CTCACCCA,-0.244
21,CCGGGTAC,-0.313
22,ATTAGTAG,0.106

row,Sequence,PBM E-score
1,GACTATCC,-0.236
2,CTCCCATC,-0.206
3,GCCACGGA,-0.215
4,AACAACTT,0.039
5,CAGAGACA,-0.2
6,ACACCTCT,-0.0505
7,GAATTAGA,0.253
8,ACACTTTG,0.132
9,ACAACTTC,0.0266
10,CGGCCTCA,-0.178
11,TTATGAAA,0.2
12,AGCTCGTC,0.0876
13,GCTGCAAA,0.0543
14,CACTCCGG,0.0274
15,CAATCCTG,-0.0168
16,CGCCGGAC,-0.137
17,ATGGCTGA,0.0743
18,AATCGAAG,0.138
19,TAGCGAGA,-0.0215
20,ATTTGCGG,-0.0383
21,CCGATGCC,-0.239
22,AACCCTCT,-0.31

row,Sequence,PBM E-score
1,AGCCTAGC,-0.106
2,AGACCCGA,0.0239
3,CCGCGTCA,0.377
4,TGCTACCA,-0.106
5,CTACACTC,-0.194
6,TAGCACGA,0.0815
7,ACCTCTTG,-0.201
8,AACCCGAA,-0.0411
9,AACGGCGT,0.027
10,CGACTTAG,0.0366
11,AGTACGAG,0.00509
12,GCTAACTA,0.0909
13,ACTCTTCG,0.0552
14,GCCCTAAA,-0.188
15,GCCCCTTA,-0.325
16,ACTAACAT,0.196
17,ACCAAACG,0.0184
18,CTACTGTC,-0.131
19,GAGTTTAC,0.103
20,ACTCCAGT,0.0224
21,GAGGTCCC,-0.283
22,ATATTACC,0.251

row,Sequence,PBM E-score
1,TGCGCACA,0.109
2,AATTATCG,0.279
3,TACTAGTA,0.262
4,AGAAGAAA,0.0314
5,AATATAGC,0.171
6,CGCGGGGC,-0.261
7,GCTAGCAA,-0.131
8,AATCGGGG,-0.246
9,GAGTTCGA,0.0938
10,ACATAGGA,-0.17
11,GCTCTCGA,-0.138
12,CAGCCGCC,-0.191
13,ACTAGAGC,-0.13
14,CCGACTCA,-0.246
15,CAAGAGTA,0.029
16,AGTTTGTA,0.0762
17,GAGACCAC,0.0993
18,CGATCGGA,-0.154
19,ATACCAGC,-0.215
20,AGGTTGAT,-0.163
